Screen size: about 310,000 compounds; about 14,000 (4.5%) showed an effect of 50% or more. The effect is printed as a negative number. The list shows a part of the results.
target: human ether-à-go-go-related gene (hERG) potassium channel (human, UniProt Q12809); test: primary screen, population patch clamp on CHO cells stably expressing hERG
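Further: peak tail current of the secondary pulse compared with the same well before compound.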

Chain of human ether-à-go-go-related gene (hERG) potassium channel (Q12809 whole entry, looked up): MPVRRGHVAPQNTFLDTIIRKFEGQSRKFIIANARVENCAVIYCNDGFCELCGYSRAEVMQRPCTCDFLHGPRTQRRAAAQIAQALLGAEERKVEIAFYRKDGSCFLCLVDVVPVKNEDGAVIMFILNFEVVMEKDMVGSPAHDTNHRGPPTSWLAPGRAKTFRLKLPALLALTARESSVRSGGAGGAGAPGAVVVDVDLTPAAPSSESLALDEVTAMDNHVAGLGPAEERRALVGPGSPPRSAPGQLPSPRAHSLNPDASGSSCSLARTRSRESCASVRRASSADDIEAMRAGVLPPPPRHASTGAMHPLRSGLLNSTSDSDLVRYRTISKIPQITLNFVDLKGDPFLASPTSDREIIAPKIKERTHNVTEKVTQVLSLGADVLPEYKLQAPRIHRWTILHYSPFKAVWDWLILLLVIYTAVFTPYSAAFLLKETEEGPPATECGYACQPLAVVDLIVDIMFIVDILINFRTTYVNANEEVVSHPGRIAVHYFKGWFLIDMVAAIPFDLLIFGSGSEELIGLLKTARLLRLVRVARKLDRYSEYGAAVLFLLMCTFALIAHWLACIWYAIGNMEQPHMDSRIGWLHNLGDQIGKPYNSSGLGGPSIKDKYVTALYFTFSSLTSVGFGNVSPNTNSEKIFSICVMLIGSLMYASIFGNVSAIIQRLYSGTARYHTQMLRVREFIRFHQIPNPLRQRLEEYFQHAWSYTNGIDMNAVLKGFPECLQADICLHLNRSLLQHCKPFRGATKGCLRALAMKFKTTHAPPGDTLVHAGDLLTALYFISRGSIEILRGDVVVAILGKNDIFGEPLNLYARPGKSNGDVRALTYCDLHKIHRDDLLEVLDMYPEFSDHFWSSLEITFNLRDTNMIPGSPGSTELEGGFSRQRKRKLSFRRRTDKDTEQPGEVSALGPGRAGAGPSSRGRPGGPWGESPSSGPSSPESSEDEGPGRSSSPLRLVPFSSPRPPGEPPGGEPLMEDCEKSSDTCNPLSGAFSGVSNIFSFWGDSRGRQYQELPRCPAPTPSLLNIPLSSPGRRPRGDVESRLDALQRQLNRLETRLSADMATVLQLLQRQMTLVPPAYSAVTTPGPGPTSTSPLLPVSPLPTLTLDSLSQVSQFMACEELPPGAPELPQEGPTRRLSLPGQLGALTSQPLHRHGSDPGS

| Structure (SMILES) | hERG current change (%, negative = inhibition) at 10uM [%] |
| --- | --- |
| Cc1ccc(C(=O)NNC(=O)c2ccc(NC(=O)C(C)(C)C)cc2)cc1 | 14.5 |
| Cc1nn(CCC#N)c(C)c1Oc1ccccc1O | 6.13 |
| O=C(CCC1N=C2c3ccccc3N=C(SCc3cccc(Cl)c3)N2C1=O)NCc1ccco1 (centres unmarked) | -42.2 |
| CC(Sc1nncs1)C(=O)NCC(=O)Nc1ccc(F)c(F)c1F (centres unmarked) | 11 |
| O=C1CC2(CCCC2)C(=O)N1CN1CCN(S(=O)(=O)c2ccc(Cl)c(Cl)c2)CC1 | 3.53 |
| COc1ccc(N(C)S(=O)(=O)c2ccc3c(c2)CC(C)N3C(=O)C2CC2)c(OC)c1 (centres unmarked) | 3.79 |
| O=[N+]([O-])c1ccc2nc(Cl)nc(-c3ccccc3)c2c1 | -31.5 |
| Cc1ccc(OCc2nnc(SCC(=O)c3ccccc3)n2-c2ccccc2)cc1 | 1.75 |
| O=C(Cn1nnc(-c2ccccc2NC(=O)C2CC2)n1)NC1CCCCC1 | -5.23 |
| CNS(=O)(=O)c1ccc(N2CCCC2=O)c([N+](=O)[O-])c1 | -4.8 |
| Cc1[nH]nc2c1C1(CCN(Cc3ccccc3)CC1)C(C#N)=C(N)O2 | -42 |
| C[C@H](NC(=O)c1nc[nH]c1C(=O)NCC(=O)OCc1ccccc1)C(=O)OCc1ccccc1 | 9.72 |
| CCOc1ccc2nc(SCc3ccc(CC(=O)O)cc3)c(C#N)cc2c1 | 23.2 |
| Cc1ccn2c(CNCc3cnn(C)c3)c(C(=O)N3CCCCCC3)nc2c1 | -26.2 |
| CC(=O)NC(c1cc(F)c2cccnc2c1O)C1CC1 (centres unmarked) | -1.58 |
| CCOC(=O)C1=C(c2ccccc2)N=C2SCC(=O)N2C1c1ccc(O)c(OC)c1 (centres unmarked) | -12.8 |
| Cc1ccc(C2(c3ccccc3)NC(=O)N(CC(=O)NCc3ccccc3)C2=O)cc1C (centres unmarked) | -23 |
| CCN(CC)S(=O)(=O)c1cccc(-c2n[nH]c(=S)n2/N=C/c2ccc(OC)cc2)c1 | 11.5 |
| COC(=O)c1cccc(NC(=O)Cn2cnc3c2c(=O)n(C)c(=O)n3C)c1 | -4.78 |
| COc1cc(NC(=O)CNC(=O)Cn2c(C)cc3ccccc3c2=O)cc(OC)c1OC | 22 |
| O=C(NCc1cccnc1)/C(=C\c1ccc(-c2ccc(Cl)c(Cl)c2)o1)S(=O)(=O)c1ccccc1 | -4.99 |
| CCCS(=O)(=O)c1nc(S(=O)(=O)c2ccc(C)cc2)c(NCCCn2ccnc2)s1 | -29.6 |

| Structure (SMILES) | hERG current change (%, negative = inhibition) at 10uM [%] |
| --- | --- |
| COc1ccccc1Nc1nc(N)nc(CSc2nnc(C)s2)n1 | -2.07 |
| CC(C)CC(=O)NC(=S)Nc1ccc(N2CCCC2)c(Cl)c1 | 12.9 |
| Nc1ccc(Oc2ccc3nc(-c4ccccc4)c(-c4ccc([N+](=O)[O-])cc4)nc3c2)cc1 | 2.12 |
| CCc1nn2c(=O)c(S(=O)(=O)Nc3ccc(Cl)cc3)c(C)nc2s1 | -20.5 |
| COc1ccc(NC2=NC3(CCCCC3)N=C(N)N2)cc1 | 0.716 |
| Cc1ccc(S(=O)(=O)N2CCOCC2)cc1C(=O)N1CCC(Cc2ccccc2)CC1 | -5.38 |
| C/C(=N\O)C(C)Oc1ccc(Cl)cc1 (centres unmarked) | 0.654 |
| CC(C)[C@@H]1C=C(C(=O)O)O[C@H](OCCCCO)C1 | 11.3 |
| COc1cc(C(=O)NCCOc2ccc(Cl)cc2)ccc1OCc1c(C)noc1C | 6 |
| CN1CCN(c2ccc(S(=O)(=O)N3CCCCC3)cc2NC(=O)c2ccc(F)cc2F)CC1 | -68.4 |
| Cc1ccc(-c2nnn(CCC(=O)N3CCCCC3C)n2)cc1 (centres unmarked) | -1.73 |
| CC1(C)CC(NC(=O)C23CCC(C)(C(=O)C2=O)C3(C)C)CC(C)(C)N1 (centres unmarked) | 12.8 |
| O=C(CCC1CCCCC1)Nc1ccc(S(=O)(=O)Nc2nccs2)cc1 | -5.52 |
| COc1ccc(C(c2c(C)n(C)n(-c3ccccc3)c2=O)c2c(C)n(C)n(-c3ccccc3)c2=O)cc1O | -2.62 |
| COc1cccc(C(C(=O)NC(C)(C)C)N(Cc2ccc(C)cc2)C(=O)CCC(=O)Nc2cc(C)on2)c1OC (centres unmarked) | 6.04 |
| O=C(/C=C/c1ccc(F)cc1)NC(=S)N1CCN(c2ccccn2)CC1 | -26.2 |
| Cc1ccc(C)c(N(C(=O)CCC(=O)Nc2cc(C)on2)C(C(=O)NC2CCCC2)c2ccco2)c1 (centres unmarked) | 10.2 |
| Cc1ccc2nc(SCC(=O)Nc3cc(C)on3)nc(=O)n2c1 | 16.8 |
| CCOC(=O)CSC1=C(C#N)C(c2ccc(C)o2)CC(=O)N1 (centres unmarked) | 6.2 |
| N#CC12CCCCC1CC1CCCCC1(C#N)N2N (centres unmarked) | 1.07 |
| O=C(NNc1ccc([N+](=O)[O-])cc1)Nc1ccccc1 | -16.2 |
| CCc1nnc(NC(=O)CSc2nnc(-c3ccco3)n2CCOC)s1 | 9.29 |

| Structure (SMILES) | hERG current change (%, negative = inhibition) at 10uM [%] |
| --- | --- |
| Cc1ccc(OCC(=O)OC(C)CN(C)Cc2ccccc2)cc1.Cl (centres unmarked) | 2.03 |
| COC(=O)/C(NC(C)=O)=C(\C)c1ccc(Cl)cc1 | 4.09 |
| COc1cccc(NC(=O)C2C3C=CC4(O3)C2C(=O)N(CCCN2CCC(C)CC2)C4C(=O)NC2CCCCC2)c1 (centres unmarked) | 24.3 |
| COc1ccc(/C=C/C(=O)OCC(=O)NC2CCCC(C)C2C)cc1S(=O)(=O)N1CCOCC1 (centres unmarked) | 18.2 |
| Cc1ccc(OCC(O)Cn2c3ccccc3c3ccccc32)cc1 (centres unmarked) | 8.1 |
| CC1CCN(CC(=O)N2CC(=O)Nc3ccccc32)CC1 | 19.9 |
| Cc1cc2occ(CC(=O)O)c2cc1C | 1.71 |
| COc1ccc(CCNC(=O)C(=O)NCC2OCCN2S(=O)(=O)c2ccc(F)cc2)cc1OC (centres unmarked) | -4.74 |
| N/C(=N\OC(=O)COc1cc(Cl)c(Cl)cc1Cl)c1ccccn1 | 17.7 |
| O=C(CN1CCCC1)OCCCC1CCCCC1 | 2.79 |
| CCOC(=O)C1=C(CN2CCCCC2)NC(=O)NC1c1cc(C)ccc1C (centres unmarked) | -2.76 |
| CCN(CC)S(=O)(=O)c1cc(NS(=O)(=O)c2cccc(Cl)c2Cl)ccc1C | -1.79 |
| COc1ccc(-n2c(Cc3cccn3C)nnc2SCC(=O)Nc2ccc(Cl)cc2)cc1 | -39.4 |
| CCCCN(C(=S)Nc1cccc(SC)c1)C1CCN(C(C)=O)CC1 | -28.9 |
| O=C(NCCN1C(=O)S/C(=C\c2cccs2)C1=O)c1ccco1 | -34.1 |
| CCOC(=O)Cc1csc(NC(=O)CSc2nc3cccnc3n2CC)n1 | -2.45 |
| Cc1noc(C)c1C(=O)NC1CCCc2ccccc21 (centres unmarked) | 3.77 |
| Cc1c(C(=O)OCCOc2ccc(Br)cc2)sc(=S)n1C | 8.16 |
| Cc1[nH]c2ccccc2c1C(=O)COC(=O)c1c(-c2c(F)cccc2Cl)noc1C | 22.8 |
| COc1ccccc1NC(=O)C(C)OC(=O)CSCC(=O)Nc1ccc(C)cc1C (centres unmarked) | 2.23 |
| O=C(NN1C(=O)C2C3C=CC([C@@H]2C1=O)C31CC1)c1ccccc1 (some centres unmarked) | 18.3 |
| CCOc1cc(NC(=O)Nc2ccccc2)c(OCC)cc1NC(=O)CC | 22.8 |

| Structure (SMILES) | hERG current change (%, negative = inhibition) at 10uM [%] |
| --- | --- |
| CCCOc1ccc(-c2c(C(=O)N/N=C/C3CC=CCC3)nnn2-c2nonc2N)cc1 (centres unmarked) | 16.8 |
| Cc1nn(C(=O)CCC(=O)NCc2ccccc2Cl)c2ccccc12 | 15.2 |
| COc1nc(-c2ccccc2)cc(C(F)(F)F)n1 | -10.6 |
| Cc1ccc(SCC(=O)NCCN2C(=O)CSC2=O)c(C)c1 | -6.73 |
| Cc1cc(NS(=O)(=O)c2ccc(NC(=O)COc3ccccc3Cl)cc2)no1 | -20.3 |
| CCc1ccc(-c2nnn(Cc3nn[nH]n3)n2)cc1 | -4.1 |
| CC(=O)C1=C(C)Nc2ncnn2C1c1cccc(O)c1 (centres unmarked) | 19.2 |
| CC(C)Nc1nc(Cl)nc(NC(C)C)n1 | 21 |
| CN1C(=O)SC(Nc2ccc(F)cc2)C1=O (centres unmarked) | 12.7 |
| O=C(NN1C(=O)C2C3C=CC(C3)C2C1=O)c1ccccc1 (centres unmarked) | 15.9 |
| Cc1cccc(-n2c(CNC(=O)c3ccc(S(=O)(=O)N4CCCC4)cc3)n[nH]c2=S)c1 | -4.21 |
| COc1ccc(OC2CCN(S(=O)(=O)c3ccc(C(C)=O)cc3)CC2)cc1 | -19.7 |
| Cc1ccc(C)c(N(C)S(=O)(=O)c2ccc3[nH]cc(C(=O)NCCN4CCOCC4)c(=O)c3c2)c1 | -12.3 |
| N#Cc1nc(-c2ccc(OCc3ccc(Cl)cc3)cc2)oc1N1CCC(C(N)=O)CC1 | 10.4 |
| Cc1nn(S(=O)(=O)c2cccc([N+](=O)[O-])c2)c(C)c1S(=O)(=O)N1CCOCC1 | 13.2 |
| Cc1ccccc1NC(=O)c1cccc(OCc2c(C)noc2C)c1 | -17.2 |
| Cc1ccc(C(=O)COC(=O)c2ccc(O)cc2)cc1 | 16.4 |
| CN(CCOc1ccc(F)cc1)Cc1ccccc1.O=C(O)C(=O)O | -23.3 |
| CCCS(=O)(=O)N1CCC(C(=O)NCCc2ccc(C)cc2)CC1 | -10.7 |
| O=C(c1cc(-c2cccs2)on1)N1CCN(c2ccccc2)CC1 | -16.7 |

Reference: PMC4336329 (PLoS ONE, 2015)
